# Reference: the supplement of paper PMC11417369
# Some of the results follow.
# System: PfSIP2 AP2 domain 1 (GST-tagged)
# Assay: gcPBM binding intensity (ln(normalized median fluorescence intensity)); higher = stronger DNA binding
# Summary of the method: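 An Agilent 4 × 180k array carrying primer-extended double-stranded 36-bp intergenic genomic probes and negative controls received GST-tagged P. falciparum DNA-binding domains expressed in E. coli, about 25 μg on average, for 1 h. The binding buffer contained 1× PBS, 1% milk, 0.2 mg/ml BSA, 0.5% salmon testes DNA and 0.03% Triton X-100. Binding intensity is the top Masliner-normalised natural-log median intensity across replicate spots of either probe orientation, read after Alexa488 anti-GST antibody staining and a 488 nm scan.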
row,Sequence,gcPBM binding intensity (ln)
1,TACAATCTAAAATACACACGCACACCGAAAAAAAAA [CACACA_site3520],7.22
2,ATATATATATATATTGCACACACAATTATTATTATT [CACACA_site8721],9.3
3,AAATTATTTCTTTGCGCATGTAGCTTTTATACTATT [TGCATGCA_site819],6.86
4,ACATAAATAATAAAAACACACATATGTACCTATATA [CACACA_site6982],7.11
5,AATACATGCTAAAAACGTACACGTATAAAATTATAT [XGTACX_site3169],7.22
6,GGTGAAATTATTTCTACATGCAGAAATAATTAATTA [TGCATGCA_site194],6.93
7,TTTTTTTTTTTGGCTAGTACATATGTATTTAAAATG [XGTACX_site7770],7.25
8,AATTTAATATAATGCACACATAAAAAAAAAATCAAA [CACACA_site1],7.41
9,TGTTGTTCCAATTTTTGTACATAAAACATATATATA [XGTACX_site5719],7.33
10,AAGAAAATATAAAATGCACACTATAAATTGTATATA [CACACA_site7928],7.84
11,AAAAAAAAAAAAAATTGTACATTAAATTAAAAGAAA [XGTACX_site8708],7.09
12,AAAAAAAAAAATACTTGTACTTATATAATATATTAT [XGTACX_site8333],6.97
13,TTTTATCAATAAATTCGTACACATGAACTAGAGAGT [XGTACX_site5758],7.35
14,TACATTCTAATAATTGCACACTGGTTATTAAAAGGA [CACACA_site1614],7.16
15,TTTTTATTTATATTTCATTGAAGTTAAATTATTTTA [XGTACX_negctrl_site575],6.93
16,ATTAGTATATTTCTCTGTACTTACATTAAAATATAA [XGTACX_site2217],7.08
17,AATTTAATATTCATCTCTAAAGCTATAACAATTACT [CACACA_negctrl_site1079],6.78
18,TCCTTAAAATATGGTTGTACGTACATCCTAGGTGTT [XGTACX_site7068],7.34
19,ATACAAATTTATATTTCACACATTATTATATACTTA [CACACA_site6034],7.05
20,TCTGAAAATTAGAAAAGTACAAAATGGTATAGGAAA [XGTACX_site4396],7.18
21,TGTATTATATATGTGTGTACATATTTTTTTTTTTTT [XGTACX_site3351],7.45
22,ATATATATATATAAATGTACAGGCTTATCTCTTATT [XGTACX_site1828],9.75

row,Sequence,gcPBM binding intensity (ln)
1,AAATTATTTCAAATGTTGCACTAAAAATAAAATTAT [GTGCAC_site9460],7.78
2,CGCACACGCAGACACACACACACATATAAATAAATA [CACACA_site7101],7.29
3,AAAAAAAAGAAAAAAAAAAAAAAAAAAAAAAAAAAA [CACACA_negctrl_site489],7.09
4,TATATAAATAAAAAAAGTACATTACTTTTTAATTTA [XGTACX_site285],6.96
5,ATCATACCTTTTAATGTACACACATTTCTTTTTTGT [CACACA_site8198],7.13
6,AGAAAGGATATTATATGTACATATCTTTGTATTTTT [XGTACX_site5040],6.87
7,CATACCCATAAACACACACACATATATACCTATATA [CACACA_site4745],7.13
8,TAGTATGATAACTTGGGTACATAAATATGGAGTATC [XGTACX_site1296],7.24
9,TTTTTAATTCAAAAAACTGTATGTTATATGTCAAAT [CACACA_negctrl_site72],6.92
10,TTCATTTTATTTTAAGTGCATATTTTTATTTTTTTG,8.27
11,AGAATTTAGAAACAATGTTGTATATGTAATACCTTT [XGTACX_negctrl_site149],6.75
12,TATATATATAAAAAAAGTACGTATTTAATAAAAATA [XGTACX_site4992],7.81
13,GATATTATGTGTTTGGTATTTCGATCTTGTCAGGAC [CACACA_negctrl_site426],6.99
14,ATTTCTATATATTGTGCATGCCATTACACCAAATAT [TGCATGCA_site813],7.57
15,TATATATATAAATACACACACACATATATATATATA [CACACA_site4585],9.26
16,TCATTTTACAGATGTGCATGTGAATCAATCTATTTA [TGCATGCA_site787],7.19
17,AAAAAAAAAAAAAAAACACACAAACAAATGAATAAA [CACACA_site5769],7.59
18,AATATACAAATTACAAGTACAAATCAATATTATATG [XGTACX_site7521],6.95
19,GTATATAATTTATATTGTACGCATATTATTATCATT [XGTACX_site7277],7.22
20,TGTAGTTTTTATTTATGTACGCATAACATAATTTAA [XGTACX_site104],7.38
21,ACGAAGTATATGAATACACACATATTTTTAATGAAA [CACACA_site4070],6.67
22,AGTAAATTTGATGGTCGTACAAAAAAAAAGTAGGAC [XGTACX_site2600],7.12
